Lines with a small IC50 respond at low doses; fits outside the tested doses are given as limits. AUC, from the same fit, is the share of area under the viability curve across the 256-fold dose range; values near 1 show little effect.
Compound: N#CC[C@H](C1CCCC1)n1cc(-c2ncnc3[nH]ccc23)cn1 [Ruxolitinib]
Assay: Viability of human cancer cell lines after 72 h of drug (GDSC screen)
Description: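 Human cancer cell lines in 384-well plates, medium with 10% serum, drug for 72 h over a 256-fold dose range (nine 2-fold or five 4-fold steps up to the top dose). Adherent lines were fixed and stained with the nucleic acid dye Syto60, suspension lines read with resazurin; signal relative to control wells, capped at 0 and 100%. One two-parameter sigmoid per drug and line, fitted in a mixed model over all curves with the slope shared within a line.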

| Cell Line | AUC | IC50 [µM] |
| --- | --- | --- |
| GP5d (large intestine, adherent, top dose 5.24 µM) | 0.99 | > 5.24 |
| GR-ST (lymphoblastic leukaemia, suspension, top dose 5.24 µM) | 0.975 | > 5.24 |
| GT3TKB (stomach, adherent, top dose 5.24 µM) | 0.988 | > 5.24 |
| H4 (glioma, adherent, top dose 5.24 µM) | 0.986 | > 5.24 |
| H9 (lymphoid neoplasm, suspension, top dose 5.24 µM) | 0.99 | > 5.24 |
| H290 (mesothelioma, adherent, top dose 5.24 µM) | 0.978 | > 5.24 |
| H513 (mesothelioma, semi-adherent, top dose 5.24 µM) | 0.986 | > 5.24 |
| H2369 (mesothelioma, adherent, top dose 5.24 µM) | 0.987 | > 5.24 |
| H2373 (mesothelioma, adherent, top dose 5.24 µM) | 0.98 | > 5.24 |
| H2461 (mesothelioma, adherent, top dose 5.24 µM) | 0.983 | > 5.24 |
| H2591 (mesothelioma, adherent, top dose 5.24 µM) | 0.978 | > 5.24 |
| H2595 (mesothelioma, adherent, top dose 5.24 µM) | 0.978 | > 5.24 |
| H2722 (mesothelioma, adherent, top dose 5.24 µM) | 0.975 | > 5.24 |
| H2731 (mesothelioma, adherent, top dose 5.24 µM) | 0.98 | > 5.24 |
| H2795 (mesothelioma, adherent, top dose 5.24 µM) | 0.949 | > 5.24 |
| H2803 (mesothelioma, adherent, top dose 5.24 µM) | 0.974 | > 5.24 |
| H2804 (mesothelioma, adherent, top dose 5.24 µM) | 0.966 | > 5.24 |
| H2818 (mesothelioma, adherent, top dose 5.24 µM) | 0.988 | > 5.24 |
| H2869 (mesothelioma, adherent, top dose 5.24 µM) | 0.962 | > 5.24 |
| H3118 (head and neck, adherent, top dose 5.24 µM) | 0.98 | > 5.24 |
| H3255 (lung adenocarcinoma, adherent, top dose 5.24 µM) | 0.982 | > 5.24 |

| Cell Line | AUC | IC50 [µM] |
| --- | --- | --- |
| H-EMC-SS (chondrosarcoma, adherent, top dose 5.24 µM) | 0.966 | > 5.24 |
| HA7-RCC (kidney, adherent, top dose 5.24 µM) | 0.984 | > 5.24 |
| HAL-01 (lymphoblastic leukaemia, suspension, top dose 5.24 µM) | 0.983 | > 5.24 |
| HARA (lung squamous cell carcinoma, adherent, top dose 5.24 µM) | 0.951 | > 5.24 |
| HC-1 (hairy cell leukaemia, suspension, top dose 5.24 µM) | 0.965 | > 5.24 |
| HCC38 (breast, adherent, top dose 5.24 µM) | 0.984 | > 5.24 |
| HCC70 (breast, adherent, top dose 5.24 µM) | 0.988 | > 5.24 |
| HCC202 (breast, adherent, top dose 5.24 µM) | 0.979 | > 5.24 |
| HCC1143 (breast, adherent, top dose 5.24 µM) | 0.975 | > 5.24 |
| HCC1187 (breast, suspension, top dose 5.24 µM) | 0.989 | > 5.24 |
| HCC1395 (breast, adherent, top dose 5.24 µM) | 0.98 | > 5.24 |
| HCC1419 (breast, adherent, top dose 5.24 µM) | 0.978 | > 5.24 |
| HCC1428 (breast, adherent, top dose 5.24 µM) | 0.987 | > 5.24 |
| HCC1500 (breast, adherent, top dose 1.024 µM) | 0.967 | > 1.02 |
| HCC1569 (breast, adherent, top dose 5.24 µM) | 0.97 | > 5.24 |
| HCC1599 (breast, suspension, top dose 5.24 µM) | 0.977 | > 5.24 |
| HCC1806 (breast, adherent, top dose 5.24 µM) | 0.989 | > 5.24 |
| HCC1937 (breast, adherent, top dose 5.24 µM) | 0.985 | > 5.24 |
| HCC1954 (breast, adherent, top dose 5.24 µM) | 0.983 | > 5.24 |
| HCC2157 (breast, suspension, top dose 5.24 µM) | 0.978 | > 5.24 |
| HCC2218 (breast, suspension, top dose 5.24 µM) | 0.983 | > 5.24 |

| Cell Line | AUC | IC50 [µM] |
| --- | --- | --- |
| HCC2998 (large intestine, adherent, top dose 5.24 µM) | 0.988 | > 5.24 |
| HCC-15 (lung squamous cell carcinoma, adherent, top dose 5.24 µM) | 0.981 | > 5.24 |
| HCC-33 (small cell lung carcinoma, adherent, top dose 5.24 µM) | 0.981 | > 5.24 |
| HCC-44 (lung adenocarcinoma, adherent, top dose 5.24 µM) | 0.966 | > 5.24 |
| HCC-56 (large intestine, adherent, top dose 5.24 µM) | 0.987 | > 5.24 |
| HCC-78 (lung adenocarcinoma, adherent, top dose 5.24 µM) | 0.98 | > 5.24 |
| HCC-827 (lung adenocarcinoma, adherent, top dose 5.24 µM) | 0.976 | > 5.24 |
| HCE-4 (oesophagus, adherent, top dose 5.24 µM) | 0.991 | > 5.24 |
| HD-MY-Z (Hodgkin lymphoma, adherent, top dose 5.24 µM) | 0.984 | > 5.24 |
| HDLM-2 (Hodgkin lymphoma, suspension, top dose 5.24 µM) | 0.607 | 0.642 |
| HDQ-P1 (breast, adherent, top dose 5.24 µM) | 0.982 | > 5.24 |
| HEC-1 (endometrium, adherent, top dose 5.24 µM) | 0.989 | > 5.24 |
| HGC-27 (stomach, adherent, top dose 5.24 µM) | 0.99 | > 5.24 |
| HH (T-cell leukaemia, suspension, top dose 5.24 µM) | 0.978 | > 5.24 |
| HLE (liver, adherent, top dose 5.24 µM) | 0.982 | > 5.24 |
| HMV-II (melanoma, adherent, top dose 5.24 µM) | 0.981 | > 5.24 |
| HN (head and neck, adherent, top dose 5.24 µM) | 0.989 | > 5.24 |
| HO-1-N-1 (head and neck, adherent, top dose 5.24 µM) | 0.987 | > 5.24 |
| HO-1-u-1 (head and neck, adherent, top dose 5.24 µM) | 0.988 | > 5.24 |
| HOP-62 (lung adenocarcinoma, adherent, top dose 5.24 µM) | 0.972 | > 5.24 |
| HOP-92 (large cell lung carcinoma, adherent, top dose 5.24 µM) | 0.978 | > 5.24 |

| Cell Line | AUC | IC50 [µM] |
| --- | --- | --- |
| HOS (osteosarcoma, adherent, top dose 5.24 µM) | 0.992 | > 5.24 |
| HPAC (pancreas, adherent, top dose 5.24 µM) | 0.977 | > 5.24 |
| HPAF-II (pancreas, adherent, top dose 5.24 µM) | 0.98 | > 5.24 |
| HSC-2 (head and neck, adherent, top dose 5.24 µM) | 0.989 | > 5.24 |
| HSC-3 (head and neck, adherent, top dose 5.24 µM) | 0.99 | > 5.24 |
| HSC-4 (head and neck, adherent, top dose 5.24 µM) | 0.976 | > 5.24 |
| HSC-39 (stomach, suspension, top dose 5.24 µM) | 0.979 | > 5.24 |
| HT55 (large intestine, adherent, top dose 5.24 µM) | 0.99 | > 5.24 |
| HT (B-cell lymphoma, suspension, top dose 5.24 µM) | 0.988 | > 5.24 |
| HT-3 (cervix, adherent, top dose 5.24 µM) | 0.98 | > 5.24 |
| HT-115 (large intestine, adherent, top dose 5.24 µM) | 0.985 | > 5.24 |
| HT-144 (melanoma, adherent, top dose 5.24 µM) | 0.984 | > 5.24 |
| HT-1080 (fibrosarcoma, adherent, top dose 5.24 µM) | 0.989 | > 5.24 |
| HT-1197 (bladder, adherent, top dose 5.24 µM) | 0.985 | > 5.24 |
| HT-1376 (bladder, adherent, top dose 5.24 µM) | 0.985 | > 5.24 |
| HTC-C3 (thyroid, adherent, top dose 5.24 µM) | 0.984 | > 5.24 |
| HUTU-80 (digestive system, adherent, top dose 5.24 µM) | 0.991 | > 5.24 |
| Hep 3B2_1-7 (liver, adherent, top dose 5.24 µM) | 0.986 | > 5.24 |

From the supplement of paper PMC4967469
